# Laboratory results as given in PubChem BioAssay AID485294 (National Center for Advancing Translational Sciences (NCATS), 2010).
# Hit rate of the full screen: of about 370,000 compounds, about 150 (0.041%) were called active. The inconclusive results got no clear call from the source; some entries with a clear call stand among them for comparison. Calls follow the shape of the dose curve; as a rule, active = well fitted inhibition curve with a large enough effect; inconclusive = small, poorly fitted or top-dose-only effect; inactive = flat fitted curve, though single readings scatter. No potency is given beside an inconclusive call; the fits are too rough.
# Biological target: Beta-lactamase (Escherichia coli (strain K12)) (UniProt P00811)
# Assay: qHTS Inhibitors of AmpC Beta-Lactamase (assay with detergent); also: nearly all actives have a fitted effect of over 25% in size
# Settings: AmpC hydrolysis of nitrocefin, absorbance 480 nm, 0.01% Triton; series mostly up to 114 µM
# Protocol: NIH Molecular Libraries Probe Production Network [MLPCN] NIH Chemical Genomics Center [NCGC] Assay Provider: Professor Brian Shoichet, UCSF Assay Overview: This aggregation profiling approach exploits the sensitivity of aggregate formation to detergent. Inhibition of b-lactamase is measured in the presence and absence of 0.01% Triton X-100. This particular assay had the prescence of 0.01% Triton X-100. See Pubchem assay "Promiscuous and Specific Inhibitors of AmpC Beta-Lactamase (assay without detergent)" for related screen. Compounds that inhibit only in the absence of detergent are considered likely promiscuous aggregators. A screen of 1,030 compounds was performed in Brian Shoichet's lab in 96-well format. AmpC activity was measured by following the absorbance at 480 nm. Nitrocefin is a chromogenic substrate: while nitrocefin is yellow (lmax 390 nm), the product of its hydrolysis is red (lmax 486 nm, 17,000 M-1). AmpC beta lactamase was provided by Shoichet Lab, UCSF.
# Buffer: 20 mM phosphate buffer, pH 7.0 Triton X-100: No Detergent screen: 0.0001%, Detergent screen: 0.01%. Reagents/Controls: Buffer in columns 3 and 4 as negative control (no enzyme). 5.3 nM AmpC in columns 1, 2, 5-48. Titration of UCSF compound 9 control (from 10 mM, then 1:2) pin-transferred to column 2. Column 1 is neutral (100% activity). Assay Steps: Six uL of reagents were dispensed to 1536-well Greiner black clear bottom plates. Compounds and controls (23 nL) were transferred via Kalypsys PinTool. The plates were incubated for 15 min at room temperature, and then 2 uL of 800 uM solution of nitrocefin was added to start the reaction. The plates were immediately transferred to and read every 20 seconds for 4 min on ViewLux (Perkin-Elmer) High-throughput CCD imager using 480 nm absorbance protocol. During dispense, reagent bottles were kept submerged into 4 deg C water bath. Keywords: NIH Roadmap, MLSCN, MLI, MLSMR, qHTS, NCGC, AmpC Beta-Lactamase, Aggregation
# Potency is read from the fitted curve at half-maximal effect; tags tell the direction and shape of the fitted curve.
# UniProt P00811, sequence (P00811 whole entry, looked up): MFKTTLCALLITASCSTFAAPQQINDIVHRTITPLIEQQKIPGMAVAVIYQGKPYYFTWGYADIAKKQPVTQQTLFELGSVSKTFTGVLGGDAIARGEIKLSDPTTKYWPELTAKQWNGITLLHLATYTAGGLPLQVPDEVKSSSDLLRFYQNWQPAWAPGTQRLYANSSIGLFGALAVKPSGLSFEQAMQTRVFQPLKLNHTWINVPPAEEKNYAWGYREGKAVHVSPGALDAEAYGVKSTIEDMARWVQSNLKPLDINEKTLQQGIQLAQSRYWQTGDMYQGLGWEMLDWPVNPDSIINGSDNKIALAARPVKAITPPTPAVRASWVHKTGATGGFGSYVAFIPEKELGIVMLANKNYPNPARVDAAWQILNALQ
row,SMILES,Potency
1,COc1ccc(N(C)S(=O)(=O)c2ccc3c(c2)NC(=O)CC(=O)N3)c(OC)c1,inactive
2,N#Cc1nc(COc2cccc(Cl)c2)oc1N1CCCC1,"inconclusive [inhibitor, full curve, poor fit]"
3,CCN(CC)S(=O)(=O)c1cccc(C(=O)NC(C)C(c2cccs2)N2CCCC2)c1 (stereo not drawn),inactive
4,CN1C(=O)/C(=C/C=C2\SCCN2C)SC1=S,"inconclusive [inhibitor, full curve, poor fit]"
5,CC/C(=N\Nc1ccnc2cc(Cl)ccc12)c1ccc(O)cc1,"inconclusive [inhibitor, full curve]"
6,COC(=O)c1ccc(CNC(=O)CSc2nc3ccccc3[nH]2)cc1,inactive
7,Cc1cc(C(=O)Cn2nnc(-c3ccc(Cl)cc3)n2)c(C)n1CC1CCCO1 (stereo not drawn),"inconclusive [inhibitor, full curve, poor fit]"
8,Cc1ccc(OCc2ccoc2C(=O)O)cc1C,"inconclusive [inhibitor, partial curve, poor fit]"
9,O=C(CCCCCn1c(=O)[nH]c2ccccc2c1=O)NCCc1c[nH]c2ccccc12,"inconclusive [inhibitor, partial curve, poor fit]"
10,COCCn1c(C)cc(C(=O)COC(=O)CNC(=O)c2ccccc2)c1C,"inconclusive [inhibitor, partial curve, poor fit]"
11,CCOC(=O)C1(C)C=C(Nc2ccc(OCC)cc2)C(=O)N1c1ccccc1 (stereo not drawn),"inconclusive [inhibitor, full curve, poor fit]"
12,Cc1n[nH]c(C)c1C(=O)CC1(O)C(=O)N(CCc2ccccc2)c2ccc(Br)cc21 (stereo not drawn),"inconclusive [inhibitor, full curve, poor fit]"
13,CC(C)COc1ccc(C(=O)Nc2ncn[nH]2)cc1,inactive
14,CCCOc1ccc(N2C(=O)CC(SCCc3nc4ccccc4[nH]3)C2=O)cc1 (stereo not drawn),inactive
15,COC(=O)C1=C(CS(=O)(=O)c2ccc(Cl)cc2)NC(=O)NC1c1ccc(O)c(OC)c1 (stereo not drawn),inactive
16,COc1ccc(-c2cc(C(F)F)n3ncc(C(=O)NCC4CCCO4)c3n2)cc1 (stereo not drawn),"inconclusive [inhibitor, full curve]"
17,CC(=O)c1sc2nc(=O)c(C)nn2c1C,inactive
18,Cc1c(Cl)cccc1NC(=O)CSc1nnc(CCNC(=O)OC(C)(C)C)o1,"inconclusive [inhibitor, full curve, poor fit]"
19,CCSc1nc(-c2ccc(OC)cc2)nc2c1Cc1c(CO)cnc(C)c1O2,inactive
20,c1ccc(CCn2nnnc2C(c2cccnc2)N2CCN(c3nc4ccccc4s3)CC2)cc1 (stereo not drawn),inactive
21,CCOC(=O)c1c(C)n(-c2ccc(C)cc2)c2ccc(OCC(O)CNCCCO)cc12 (stereo not drawn),"inconclusive [inhibitor, single point]"
22,CNC(=O)c1ccc(-c2sc3nc(N4CCOCC4)c4c(c3c2N)CCCC4)o1,"inconclusive [inhibitor, partial curve, poor fit]"

row,SMILES,Potency
1,CC(C)(C)c1cc(NC(=O)CCl)n(-c2ccccc2)n1,inactive
2,CCn1c2ccccc2c2cc(NC(=O)COC(=O)c3ccccc3F)ccc21,inactive
3,NC(=O)c1ccc(SCC(=O)OCC(=O)N2CCCCC2)c([N+](=O)[O-])c1,"inconclusive [inhibitor, full curve, poor fit]"
4,Cc1ccc(C(=O)CSc2nc(C)cc(C)c2C(=O)Nc2cccc(C)c2)cc1,"inconclusive [inhibitor, single point]"
5,Cc1ccccc1N(CC(=O)NC1CCCC1)C(=O)c1oc(C(C)(C)C)cc1C,inactive
6,O=[N+]([O-])c1cc([N+](=O)[O-])c(Oc2ccc(F)cc2)cc1NN1CCCCC1,inactive
7,Cc1ccc(Oc2ccccc2NC(=O)CSCC(=O)Nc2cc(C)on2)cc1,"inconclusive [inhibitor, single point]"
8,Cc1cccc(Oc2ccc(NC(=O)C3=CC=CN4CCS(=O)(=O)N=C34)cc2)c1,"inconclusive [inhibitor, full curve, poor fit]"
9,CSc1nc2ccccc2n1CC(=O)Nc1ccc(C)c(C)c1,"inconclusive [inhibitor, full curve, poor fit]"
10,Cn1ncc(-c2ccno2)c1C(=O)O,"inconclusive [inhibitor, full curve, poor fit]"
11,COC(=O)c1ccccc1NC(=O)C1CCCN(S(=O)(=O)c2ccccc2)C1 (stereo not drawn),"inconclusive [inhibitor, single point]"
12,O=[N+]([O-])/C=C/c1cn(Cc2ccccc2)c2ccccc12,"inconclusive [inhibitor, full curve]"
13,CN(CC(=O)Nc1ccc(Cl)c(C(F)(F)F)c1)C(=O)CCNC(=O)c1ccco1,"inconclusive [inhibitor, full curve, poor fit]"
14,Cc1nnc(NC(=O)CSc2nc(C(C)C)nc3sc(C)c(C)c23)s1,"inconclusive [inhibitor, full curve, poor fit]"
15,CCOc1ccc(OCC)c(NC(=O)CSc2nc3c(c(=O)n(C)c(=O)n3C)n2C)c1,"inconclusive [inhibitor, partial curve, poor fit]"
16,CNC(=O)c1c(NC(=O)c2ccc(S(=O)(=O)N3CCCCC3)cc2)sc2c1CCN(C(C)C)C2,"inconclusive [inhibitor, full curve, poor fit]"
17,Cc1cc(C(=O)CSc2nc(N)cc(N)n2)c(C)n1-c1cccc(F)c1,inactive
18,Cc1ccc(-n2nnc3c(SCC(=O)NCC4CCCO4)ncnc32)cc1 (stereo not drawn),"inconclusive [inhibitor, partial curve]"
19,COc1ccc(OC)c2sc(NC(=O)c3ccc(Br)s3)nc12,"inconclusive [inhibitor, full curve]"
20,COc1cccc(NC(=O)Cn2c(=O)oc3cc(S(=O)(=O)N4CCCCC4)ccc32)c1,inactive
21,CCOC(=O)CC(NC(=O)c1ccco1)c1ccccc1Cl (stereo not drawn),"inconclusive [inhibitor, partial curve, poor fit]"
